Reference: publication PMC3102714, “OsSpo11-4, a Rice Homologue of the Archaeal TopVIA Protein, Mediates Double-Strand DNA Cleavage and Interacts with OsTopVIB” (PLoS ONE, 2011)
These are yes or no findings as the source states them, for the method shown. For part of these data: Binding seen in cells or lysates may run through a third protein. Some binding calls cover weakened binding; strength is not graded here. Where a sequence is shown, tags or fusion partners need not be part of it.

T1: OsTopVIB (yeast two-hybrid fusion) (Oryza sativa L. ssp. japonica) (UniProt Q6H442)
T1 sequence: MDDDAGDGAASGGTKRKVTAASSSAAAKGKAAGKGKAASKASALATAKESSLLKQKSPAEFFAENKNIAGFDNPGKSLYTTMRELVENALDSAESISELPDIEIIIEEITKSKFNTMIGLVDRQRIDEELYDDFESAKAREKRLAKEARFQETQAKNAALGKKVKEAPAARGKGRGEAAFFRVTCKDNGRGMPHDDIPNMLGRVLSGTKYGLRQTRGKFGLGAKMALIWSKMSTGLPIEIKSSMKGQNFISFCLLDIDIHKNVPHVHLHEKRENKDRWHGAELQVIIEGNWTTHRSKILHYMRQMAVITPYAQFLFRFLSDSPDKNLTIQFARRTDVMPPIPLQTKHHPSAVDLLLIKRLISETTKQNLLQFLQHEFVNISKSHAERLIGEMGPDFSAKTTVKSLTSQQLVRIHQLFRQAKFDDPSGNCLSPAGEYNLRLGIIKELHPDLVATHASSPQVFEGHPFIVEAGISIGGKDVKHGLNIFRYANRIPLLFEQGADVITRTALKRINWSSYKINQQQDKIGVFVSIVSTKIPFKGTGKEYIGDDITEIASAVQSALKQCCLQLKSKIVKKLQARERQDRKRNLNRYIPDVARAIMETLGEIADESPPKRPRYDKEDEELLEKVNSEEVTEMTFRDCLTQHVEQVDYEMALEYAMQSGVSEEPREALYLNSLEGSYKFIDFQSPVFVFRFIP

T2: GST-OsTopVIB fusion protein (Oryza sativa L. ssp. japonica, UniProt Q6H442 1-696)
T2 construct: OsTopVIB, Oryza sativa L. ssp. japonica; ORF amplified with primers P17 and P18, cloned BamHI/BglII into pESP-2; fusion about 103 kD; also called OsTopVIB-GST fusion; GST-TopVIB
T2 sequence (looked up): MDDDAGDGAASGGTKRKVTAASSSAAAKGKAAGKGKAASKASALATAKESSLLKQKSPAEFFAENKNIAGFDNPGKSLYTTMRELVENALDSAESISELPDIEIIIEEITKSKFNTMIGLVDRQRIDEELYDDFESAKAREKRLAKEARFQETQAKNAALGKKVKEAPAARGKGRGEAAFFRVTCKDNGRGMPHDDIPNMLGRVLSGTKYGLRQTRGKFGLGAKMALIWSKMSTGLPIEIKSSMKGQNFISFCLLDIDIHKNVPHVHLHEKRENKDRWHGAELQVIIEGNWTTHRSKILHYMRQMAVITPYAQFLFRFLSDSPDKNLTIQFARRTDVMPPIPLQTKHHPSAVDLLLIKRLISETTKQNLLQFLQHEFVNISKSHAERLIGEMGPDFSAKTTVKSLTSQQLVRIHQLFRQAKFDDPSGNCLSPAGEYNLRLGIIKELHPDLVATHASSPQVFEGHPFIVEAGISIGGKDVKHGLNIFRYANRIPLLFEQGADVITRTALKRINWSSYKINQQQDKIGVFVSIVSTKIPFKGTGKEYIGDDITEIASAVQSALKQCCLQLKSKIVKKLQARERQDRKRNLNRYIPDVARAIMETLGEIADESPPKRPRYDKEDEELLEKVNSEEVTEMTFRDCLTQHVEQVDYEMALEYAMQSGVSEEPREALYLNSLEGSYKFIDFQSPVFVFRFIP


Legend:
[1] = biological target: T1, OsTopVIB (yeast two-hybrid fusion) (Oryza sativa L. ssp. japonica); experiment: two-hybrid; … GAL4 Two-hybrid System 3; AD (pGADT7) and BD (pGBKT7) fusions co-transformed into yeast AH109; growth on QDO medium, then colony-lift filter assay with X-gal staining for 7 h
[2] = biological target: OsSpo11-4 (yeast two-hybrid fusion) (Oryza sativa L. ssp. japonica) (UniProt Q2QM00); experiment: as above
[3] = biological target: T2, GST-OsTopVIB fusion protein; experiment: pull-down; GST-OsTopVIB or GST preabsorbed to Glutathione Sepharose 4B resin, incubated with protein extracts of rice flowers at the meiosis stage, 4°C, 6 h; washed with 0.5% NP-40 lysis buffer; western blot with antibody against OsSpo11-4; only the target purified
[4] = biological target: OsSpo11-1 (yeast two-hybrid fusion) (Oryza sativa L. ssp. japonica) (UniProt Q7Y021); experiment: two-hybrid; … GAL4 Two-hybrid System 3; AD (pGADT7) and BD (pGBKT7) fusions co-transformed into yeast AH109; growth on QDO medium, then colony-lift filter assay with X-gal staining for 7 h

Binder | binding [1] | binding [2] | binding [3] | binding [4]
OsTopVIB (yeast two-hybrid fusion) (protein, UniProt Q6H442 1-696) MDDDAGDGAASGGTKRKVTAASSSAAAKGKAAGKGKAASKASALATAKESSLLKQKSPAEFFAENKNIAGFDNPGKSLYTTMRELVENALDSAESISELPDIEIIIEEITKSKFNTMIGLVDRQRIDEELYDDFESAKAREKRLAKEARFQETQAKNAALGKKVKEAPAARGKGRGEAAFFRVTCKDNGRGMPHDDIPNMLGRVLSGTKYGLRQTRGKFGLGAKMALIWSKMSTGLPIEIKSSMKGQNFISFCLLDIDIHKNVPHVHLHEKRENKDRWHGAELQVIIEGNWTTHRSKILHYMRQMAVITPYAQFLFRFLSDSPDKNLTIQFARRTDVMPPIPLQTKHHPSAVDLLLIKRLISETTKQNLLQFLQHEFVNISKSHAERLIGEMGPDFSAKTTVKSLTSQQLVRIHQLFRQAKFDDPSGNCLSPAGEYNLRLGIIKELHPDLVATHASSPQVFEGHPFIVEAGISIGGKDVKHGLNIFRYANRIPLLFEQGADVITRTALKRINWSSYKINQQQDKIGVFVSIVSTKIPFKGTGKEYIGDDITEIASAVQSALKQCCLQLKSKIVKKLQARERQDRKRNLNRYIPDVARAIMETLGEIADESPPKRPRYDKEDEELLEKVNSEEVTEMTFRDCLTQHVEQVDYEMALEYAMQSGVSEEPREALYLNSLEGSYKFIDFQSPVFVFRFIP | binds | – | – | –
OsSpo11-1 (yeast two-hybrid fusion) (protein, UniProt Q7Y021 1-381) MAGREKRRRVAALDGEERRRRQEEAATLLHRIRGLVRWVVAEVAAGRSPTVALHRYQNYCSSASAAAASPCACSYDVPVGTDVLSLLHRGSHASRLNVLLRVLLVVQQLLQQNKHCSKRDIYYMYPSIFQEQAVVDRAINDICVLFKCSRHNLNVVPVAKGLVMGWIRFLEGEKEVYCVTNVNAAFSIPVSIEAIKDVVSVADYILIVEKETVFQRLANDKFCERNRCIVITGRGYPDIPTRRFLRYLVEQLHLPVYCLVDADPYGFDILATYKFGSLQLAYDANFLRVPDIRWLGVFTSDFEDYRLPDCCLLHLSSEDRRKAEGILSRCYLHREAPQWRLELEAMLQKGVKFEIEALSACSISFLSEEYIPKKIKQGRHI | no binding | – | – | no binding

Now from value to binder:

binding [1] | binding [2] | binding [3] | binding [4] | Binder
binds | binds | – | – | OsSpo11-4 (yeast two-hybrid fusion) (protein, UniProt Q2QM00 1-487) MDDSTDDDSYHPRKHYAYDRQVSSSRWRTSREYIRGPGPETHTTESAQDGQDPPAGVYSYGYFSGSGNDPQVQGHFVPEIQKYNPYVIFKGEQLPVPIWELPEEKVQDFHDRYFIAKDKSRVEARKTLNRLLEGNINTIERGHGYKFNIPKYTDNMEFNEEVKVSLAKAGKTISRSFCNANQREVASRTGYTIDLIERTLGAGLNISKRTVLYTNKDLFGDQSKSDQAINDICALTNIRRGSLGIIAAEKGIVVGNIFLELTNGKSISCSIGVQIPHRLDQIKDVCVEIGSRNIEYILVVEKHTMLNYLLEMDYHTNNNCIILTGCGMPTLQTRDFLRFLKQRTGLPVFGLCDPDPEGISILATYARGSCNSAYDNFNISVPSICWVGLSSSDMIKLNLSETNYSRLSREDKTMLKNLWQDDLSDVWKRRIEEMISFDKKASFEAIHSLGFDYFATNLLPDMINKVREGYVQVQEKKEPQDTEASED
– | – | binds | – | OsSpo11-4 from rice flowers at the male meiosis stage (protein, UniProt Q2QM00 1-487) MDDSTDDDSYHPRKHYAYDRQVSSSRWRTSREYIRGPGPETHTTESAQDGQDPPAGVYSYGYFSGSGNDPQVQGHFVPEIQKYNPYVIFKGEQLPVPIWELPEEKVQDFHDRYFIAKDKSRVEARKTLNRLLEGNINTIERGHGYKFNIPKYTDNMEFNEEVKVSLAKAGKTISRSFCNANQREVASRTGYTIDLIERTLGAGLNISKRTVLYTNKDLFGDQSKSDQAINDICALTNIRRGSLGIIAAEKGIVVGNIFLELTNGKSISCSIGVQIPHRLDQIKDVCVEIGSRNIEYILVVEKHTMLNYLLEMDYHTNNNCIILTGCGMPTLQTRDFLRFLKQRTGLPVFGLCDPDPEGISILATYARGSCNSAYDNFNISVPSICWVGLSSSDMIKLNLSETNYSRLSREDKTMLKNLWQDDLSDVWKRRIEEMISFDKKASFEAIHSLGFDYFATNLLPDMINKVREGYVQVQEKKEPQDTEASED
